# Experimental data published in the supplement of paper PMC11417369.
# ± gives the standard deviation of the averaged measurements. This is one part of the list.
# Tested on: PfAP2-EXP AP2 domain (GST-tagged)
# Assay: gcPBM binding intensity (ln(normalized median fluorescence intensity)); higher = stronger DNA binding
# In short: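 GST-fused DNA-binding domains of P. falciparum, expressed in E. coli, were applied at about 25 μg on average for 1 h to an Agilent 4 × 180k array of primer-extended double-stranded 36-bp intergenic genomic probes and negative controls. Binding intensity is the highest Masliner-normalised natural-log median intensity across replicate spots of either probe orientation, measured with Alexa488 anti-GST antibody and a 488 nm scan.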
row,Sequence,gcPBM binding intensity (ln)
1,GTGATACGCTATAGGACACACGCTTAATAATTATAA [CACACA_site1694],8.49 ± 0.4
2,AAATTGTCAAAACACGCACACACATATACATAATAA [CACACA_site1743],8.7 ± 0.32
3,ATCATAAATTATTATACACACAATACGTGACCTATT [CACACA_site1906],8.71 ± 0.41
4,TAGAAGCAGAAACACACACACATACATACACATACA [CACACA_site1467],8.8 ± 0.41
5,TCTATGTAGTTTTTATGTACTAAATAAATAAATAAA [XGTACX_site2599],8.24 ± 0.35
6,TAAATGTCCTTATTTGCACACACACCGATAAGAAAT [CACACA_site5723],8.65 ± 0.33
7,ACTATTAACAGTGTAGTGCAAAAAGGTTAATTATTA,8.82 ± 0.17
8,TTTTCAATATATATTTGTACTTTATTTTATGATATT [GTGCAC_negctrl_site732],8.73 ± 0.44
9,GCATTCATTTTTAATACACACAAAAAAAAAATAAAA [CACACA_site2408],8.43 ± 0.41
10,TACATATATATTTGTTCACACACACCCAAAAAAAAA [CACACA_site8788],8.65 ± 0.52
11,TACGCACAAAAATATACACACACACCGATATATTTA [CACACA_site9213],8.5 ± 0.41
12,AGACATTTTTAAGCAAAACATTCATCATCTTATAAT [CACACA_negctrl_site1539],8.63 ± 0.43
13,TATTTTACACATTTACGTACATAAATATATATATAT [XGTACX_site8788],9.62 ± 0.23
14,CTAACAACCAAACGCACACACACAAAAAAAAAAATA [CACACA_site400],8.48 ± 0.42
15,TTTGAAATGATATATAAACACACATATATATATATA [CACACA_site9170],10.3 ± 0.4
16,TATTAAAAGGTGAGTACACACATATATGCGTATATA [CACACA_site2102],8.68 ± 0.45
17,AACAACTATTAATTTACACACATGTATATATCTTAC [CACACA_site7459],8.71 ± 0.47
18,ATATTGAATTCCAACACATGCAAAACTTTCGGTTTT [TGCATGCA_site485],8.8 ± 0.38
19,ATATATATATATAATAGTACATATATTTTGAAAGAT [XGTACX_site5800],9.75 ± 0.27

row,Sequence,gcPBM binding intensity (ln)
1,TATGTGTGAAAAAAATGTACATATATATAAATTATA [XGTACX_site7202],8.78 ± 0.39
2,AACTGTAAAAAATATAAACACACATAGAAATATATA [CACACA_site8002],8.82 ± 0.29
3,AAAGAAATGAAATATACACACATACATATATACATA [CACACA_site9335],8.42 ± 0.45
4,GTTCTGTAAATACGTGCACACACAAATCACAAATGT [CACACA_site7999],9.12 ± 0.028
5,AATTAAAAAAGTAATTAACACACAATAATGTAATGC [CACACA_site9388],8.6 ± 0.34
6,TTTTTTTTCTTTTTTTGTACATAATAATATATAAAT [XGTACX_site6778],8.36 ± 0.45
7,GATATATTTTATATATGTACATACAATGGTAAATAT [XGTACX_site2759],8.66 ± 0.42
8,AAAAATGAAAAATGAAAAATGAAAAATGAAAAATAA [CACACA_negctrl_site695],8.73 ± 0.37
9,TATTCTTACAAAAGTAGTACAATCATTCATATTTTT [XGTACX_site631],8.54 ± 0.34
10,TATATATATATAATTGTGCACATAATTTTAAACCAA,10.1 ± 0.22
11,TAGTTTCAAGTAGGACGTACATATAAAAGGATTTTT [XGTACX_site7136],8.71 ± 0.36
12,ATATATCAAGGGAGTGAATGTTATGCATATGAATAT [TGCATGCA_negctrl_site573],8.71 ± 0.42
13,AATAAATTAAATAAAAATGTTTAACATAAAATATGA [GTGCAC_negctrl_site373],8.36 ± 0.35
14,GGATATTATATAAAGTGTACAAGACAAATATATACA [XGTACX_site8173],8.66 ± 0.33
15,AAATTAACAAACTGTAGTACTAACAATATATACAAA [XGTACX_site1772],8.79 ± 0.45
16,ATTATAATTATCAAGGTGCGTGTATTATAATAAATA [GTGCAC_site9917],8.69 ± 0.26
17,TAATATAATAATAATTGTACTTTTCATAGTGTAATT [XGTACX_site8152],7.95 ± 0.27
18,AAAAAAAAAAAACACACACACAAAATAAACAAACAA [CACACA_site2721],8.6 ± 0.47
19,AAGAAAAAGACTTCATGAAAAAGAATTTTTTTAATT [TGCATGCA_negctrl_site473],8.06 ± 0.57

row,Sequence,gcPBM binding intensity (ln)
1,AATTTTCCATAGATTGTGCACAAATTTTTATTTTGT,8.84 ± 0.26
2,TTATAATCAATGAATACACACATATATTTAATTAAT [CACACA_site3613],8.21 ± 0.4
3,TAATATTATTTTTCAGTGCAATATAACCTTAGAATT [GTGCAC_site9417],8.38 ± 0.32
4,ATATATTTTTTTTTTATTTTATTATTATAATTTATC [XGTACX_negctrl_site16],8.32 ± 0.43
5,AAACAAAACAACTAAGTGCATAAAAATAAAATAAAT,8.96 ± 0.32
6,ATTTTATTTTTTTGAAGTACGAATTCCGAGAAGAAA [XGTACX_site43],8.65 ± 0.45
7,TATAGTTCTTCTATTTGTACATATATTATTATTTAA [XGTACX_site895],8.57 ± 0.28
8,TATTCAAAAATATAAACAATGAAACAGTATAATATG [CACACA_negctrl_site1482],8.59 ± 0.47
9,AATGTGCACACGCGTACACACAAAAAAAGAAAAAAA [CACACA_site7031],8.57 ± 0.42
10,TATTATTTGAGTAGTTGTACTCATTAATATATAAAA [XGTACX_site3468],8.11 ± 0.32
11,TATTAATTTCACCTTTCACATATGGAAAAAAAAAAA [CACACA_negctrl_site1243],8.71 ± 0.61
12,CAAAATATTTATATCACACATATAAATAAAAATAAA [CACACA_site6028],8.55 ± 0.42
13,ATTAACATTTTCGTATGTACATATATAATATATGTT [XGTACX_site7184],8.8 ± 0.4
14,TTTCCAAATACAACTACACACAAACAAAAATTATAT [CACACA_site4641],8.74 ± 0.63
15,AATAAAAATAAAAATTGTACACTTTTTTAATATTTA [XGTACX_site892],8.11 ± 0.25
16,ATGTTTATTTATTTATGTACTTATATATTTATATAT [XGTACX_site7924],8.78 ± 0.34
17,TGTATATATTATATTTGTACATATAAAACTATATGT [XGTACX_site4782],8.43 ± 0.26
18,TATCTCATAGTATACACACACACACGCGCACATATA [CACACA_site6917],9.01 ± 0.46
19,TTTCGAAAAACAACAAGAAAAAAAAAAAAAAAAAAA [XGTACX_negctrl_site449],8.01 ± 0.49
